# Assay results as given in the BET-seq Pho4 binding data (Le et al. 2018).
# The list shows a part of the results. Values were computed here from the reads of four pooled replicates and scatter widely.
# Biological target: T1, Pho4 (S. cerevisiae) (UniProt P07270)
# T1 sequence: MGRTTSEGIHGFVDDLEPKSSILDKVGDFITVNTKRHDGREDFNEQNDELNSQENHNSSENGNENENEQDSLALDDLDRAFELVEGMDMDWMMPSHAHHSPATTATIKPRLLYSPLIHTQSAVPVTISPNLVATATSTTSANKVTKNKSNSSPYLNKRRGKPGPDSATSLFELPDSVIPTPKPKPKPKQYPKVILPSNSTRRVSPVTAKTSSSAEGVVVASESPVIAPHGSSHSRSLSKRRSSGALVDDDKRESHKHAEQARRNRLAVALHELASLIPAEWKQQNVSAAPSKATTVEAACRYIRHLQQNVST
# Assay: relative binding free energy (BET-seq); higher = weaker binding
# Settings: reference: library average
row,Sequence,relative binding free energy [kcal/mol]
1,GTGTTCACGTGAGTTT,0.27
2,GGCCACACGTGGTGTG,-0.11
3,GATTTCACGTGAGGGT,0.42
4,TGTTTCACGTGGGAAA,0.18
5,ATAGTCACGTGTTAGA,0.01
6,TTTACCACGTGGGATG,-0.05
7,GTAGACACGTGGATTG,-0.02
8,TCGTTCACGTGGATTA,0.28
9,GGGAGCACGTGGTGCA,-0.1
10,ATAGTCACGTGTGTCG,0.07
11,TGAGGCACGTGATAAA,-0.04
12,GCGTACACGTGGTGAG,0.06
13,GTATACACGTGTGGTT,0.06
14,GGTCGCACGTGGGTCA,-0.03
15,GATTTCACGTGTCGTT,0.43
16,TCTCACACGTGATGGG,0.43
17,GCTCGCACGTGTTGGT,0.09
18,ATCGGCACGTGTCGTG,-0.1
19,ATGGTCACGTGGGTGA,0
20,ATTATCACGTGGTACG,-0.02
21,TAAGGCACGTGGAGCA,-0.02
22,CGTGGCACGTGGTCTG,-0.27
23,TGGACCACGTGAGAGG,0.27

row,Sequence,relative binding free energy [kcal/mol]
1,GAAGGCACGTGAAGGC,0.3
2,CAATGCACGTGTGAGT,0.06
3,TAGAGCACGTGGTACT,-0.1
4,TCTTACACGTGATATT,0.19
5,CGGGTCACGTGATTTA,0.39
6,GAGCACACGTGTTTGG,0.21
7,ATGGCCACGTGATAGT,0.06
8,GGTGACACGTGAAAGT,0.25
9,TTGGGCACGTGTGCGA,-0.14
10,AGGATCACGTGCATGG,0.19
11,GTGTTCACGTGCGTCG,0.17
12,TGGCGCACGTGTAATG,-0.06
13,CTTAGCACGTGTGATG,-0.06
14,TGGAGCACGTGTGGTA,-0.1
15,TGGTTCACGTGGATCG,0.28
16,AGGGGCACGTGTTGGA,-0.08
17,ATTTACACGTGAGTAT,0.32
18,GGTAGCACGTGTTATC,0.09
19,CGTTGCACGTGGATAG,-0.01
20,GTGCACACGTGAGCGG,0.26
21,TTGTGCACGTGTAGGA,0.05
22,GGGGGCACGTGGAAGC,-0.02
23,AGGGCCACGTGTGTCT,-0.01

row,Sequence,relative binding free energy [kcal/mol]
1,TATAACACGTGATATG,0.12
2,TAGGTCACGTGAGAAT,0.31
3,TGCGGCACGTGGGGGT,-0.15
4,TTTAGCACGTGAGTCA,0.02
5,AATTTCACGTGCGTGC,0.24
6,TCGATCACGTGTGGAG,0.25
7,TGTGTCACGTGAGTGT,0.28
8,TTCGACACGTGTTTGG,0.02
9,GACGTCACGTGGAAGG,0.16
10,CGGGTCACGTGACATG,0.34
11,GGTAGCACGTGCTAGT,-0.18
12,GATTGCACGTGGGTCA,-0.15
13,GTATCCACGTGTGTGA,0.14
14,ACGGTCACGTGAAGTG,0.53
15,TGGATCACGTGCTATG,-0.04
16,TTCTACACGTGAGGTA,0.47
17,ATGTCCACGTGGGCGG,-0.22
18,ATCGGCACGTGTAGGT,-0.05
19,GGTAACACGTGCATGG,0
20,GTGGCCACGTGGTTTC,0
21,TTGATCACGTGGGGGA,-0.08
22,CAAGTCACGTGTCGGG,0.16
23,AATGGCACGTGTGTCA,-0.11

row,Sequence,relative binding free energy [kcal/mol]
1,GTGTGCACGTGGGGCC,-0.25
2,GTATTCACGTGTATGC,0.15
3,GGGGGCACGTGGTCGT,-0.21
4,ATGCTCACGTGGGTTG,-0.01
5,TTATTCACGTGGGCAA,0.12
6,AGGCGCACGTGGGTGA,-0.25
7,AGTGGCACGTGTTCTC,-0.01
8,TATGACACGTGTGTTC,-0.03
9,GTGAACACGTGGTTTA,0
10,ATGATCACGTGGATGT,0.16
11,GTAGTCACGTGTGGCG,0.18
12,TGAAGCACGTGTATGT,-0.01
13,TGAGTCACGTGCAGTT,0.1
14,GATGGCACGTGGGTGA,-0.11
15,TGGGGCACGTGGGAGA,-0.15
16,GTGAACACGTGGAAGT,0.13
17,GGTGACACGTGTTATG,0.12
18,TTTGACACGTGTAAGT,0.02
19,TCTGGCACGTGGGTAG,-0.24
20,TCAAGCACGTGGGAGG,-0.17
21,GGAGGCACGTGAGTCA,0.24
22,ATGCGCACGTGTTTTT,-0.12
23,AAGGTCACGTGAGGAT,0.28

row,Sequence,relative binding free energy [kcal/mol]
1,TTCGGCACGTGGGGTG,-0.15
2,TTTGACACGTGTGCTG,0.01
3,AGGTCCACGTGAAGGT,0.11
4,CCTGTCACGTGGGTTA,-0.04
5,ACATTCACGTGTGTTA,0.26
6,ATGCACACGTGGGTGG,-0.15
7,TACCGCACGTGGGGGG,-0.18
8,CGGAGCACGTGATGGA,0.17
9,ATGTTCACGTGTGACA,0.22
10,GGTTCCACGTGGGTTG,-0.01
11,TAGATCACGTGTGCGG,0.18
12,CTTGTCACGTGGCTTT,0.1
13,TAGGTCACGTGGGGTT,0
14,TTTTTCACGTGTGCAG,0.16
15,TATGTCACGTGGCTTT,-0.09
16,AGAGTCACGTGCTGGT,-0.13
17,GATATCACGTGGGGAG,0.07
18,TATCACACGTGGGTTT,-0.07
19,TGGTTCACGTGGAGGT,0.3
20,CGTGACACGTGGGTGC,-0.06
21,GTCTACACGTGATGTG,0.18
22,GGCCACACGTGGGGGT,-0.06
23,TTATTCACGTGTGTGC,0.15
